# According to PMC12136788:
# Some of the results follow.
# T1: UNK ZnF1-3 (human, UniProt Q9C0B0 31-174)
# T1 sequence: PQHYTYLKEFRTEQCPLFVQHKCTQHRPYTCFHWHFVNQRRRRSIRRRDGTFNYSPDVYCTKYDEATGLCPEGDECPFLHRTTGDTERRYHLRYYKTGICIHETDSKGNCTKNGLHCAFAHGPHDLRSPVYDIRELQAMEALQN
# B1: chr2:166765161:166765162:+_ENSMUSG00000002718_ENSMUST00000002790|mus_hu|FALSE|FALSE (ssRNA)
# RNA: GGGAGUUCUACAGUCCGACGAUCGGAUAAACAUAUUGCUUCAAACAUGUAGUGAUUAAAGUGAGGUUUGCUUGGGUUCUUACUAACAGCUAAUAGCUUCUGUGUAAGCUGAGUGAUGAGAGUAGGGAUGUAGGGGAUUAUGGCCAACAGAGGAUUGAGCAUCA
# B2: 32415220_32417800_680_3pUTR_ENSG00000056097_ENST00000265069|human|control|control (ssRNA)
# RNA: GGGAGUUCUACAGUCCGACGAUCUGGCUGUCACUUGUCGAGUUUGCUGGGCUUGAGUAUACUGAGUUGCACCUUGGCUGUAACCUGCUUUGGGGGCUGUCUGAUAGUAAGUUUCAGCAACAGAAGGCUGAGGUUGGGCAGCGGCAACAGAGGAUUGAGCAUCA
# B3: 65268860_65273288_494_CDS_ENSG00000090487_ENST00000204566|human|control|control (ssRNA)
# RNA: GGGAGUUCUACAGUCCGACGAUCCUCGAGAUGGUCCCAAUAAACUGGAUACUGCAAAGCGAUAACCCGGUAACCCCAUCCAGUCAGAGCCAAAAUCUGCCGGAAAAAGACAUCUGCAGUUCCACUGACAGGGGGCAGGAAUAUCAACAGAGGAUUGAGCAUCA
# B4: chr2:216981417:216981418:+_ENSG00000079246_ENST00000392132|hu_hu|hu_hu_hu_mus_True|68_68 (ssRNA)
# RNA: GGGAGUUCUACAGUCCGACGAUCCUGAUACUGGUCCUUGCCAGCAAGGGCAUUAUCAGUGCCAUCUGUACCAAACAGGACUAACGCAAUCUCAUCUUUGCUCUCCGAAAAUACCUGUCGUUGGACAAACAUAGUCAUCACUUUCAACAGAGGAUUGAGCAUCA
# B5: 60560391_60582507_928_CDS_ENSMUSG00000026014_ENSMUST00000140485|mouse|control|control (ssRNA)
# RNA: GGGAGUUCUACAGUCCGACGAUCCAGAGCAACUCGGAUCUUCUCAGCUUUCAGUUUUGCUGCCUGUUCUUCCUCAGUAAUUGGCUGCCCCUGGUGUGUGGUCAAAUCAAGCUCUUGAGGGCGUGUCACUUUAUCAAUAUCCAGCAACAGAGGAUUGAGCAUCA
# B6: chr4:76721835:76721836:+_ENSG00000138768_ENST00000264904|hu_mus|hu_hu_hu_mus_True|68_68 (ssRNA)
# RNA: GGGAGUUCUACAGUCCGACGAUCGUUUGGCUGGGGUUUCUGAGACGCUCUGGAAUAUAACUCAUGUUGCUAAUAAAAUCCUAGUUUCUCUAUGAAAUUCUCUUUGCCAAUCCUCUUCUCUAUUAGUUGCUUUAGUUUCUCUUUCAACAGAGGAUUGAGCAUCA
# B7: chr8:95500983:95500984:-_ENSG00000164944_ENST00000437199|hu_hu|hu_hu_hu_mus_True|18_98 (ssRNA)
# RNA: GGGAGUUCUACAGUCCGACGAUCAGAACACAUCUAUUCGUGUAAAGACCGUACAUGACGGCCUCUACCACUGCCUCCACUAACAAACUUUCCUCUCGAGCCUCCACUGCCGCUAUUUUGCACUAGCCAGGACGGUCCCAGGCCCAACAGAGGAUUGAGCAUCA
# B8: chrX:131339380:131339381:-_ENSMUSG00000033436_ENSMUST00000035559|mus_mus|FALSE|FALSE (ssRNA)
# RNA: GGGAGUUCUACAGUCCGACGAUCACCGAGAAGUUUCUUUAGCAUGUCCGGAUUUUCAGCAAAGUUUGAAAGUAUUUUCAGAAUCUCAACCUUGAUUUUUCCACCCCCCUGAGAUAACAAGCGGAAAAAGUUGGCAAUGGAAUUCAACAGAGGAUUGAGCAUCA
# B9: chr17:21098601:21098602:+_ENSMUSG00000007564_ENSMUST00000007708|mus_hu|motif|central (ssRNA)
# RNA: GGGAGUUCUACAGUCCGACGAUCGGCCAAGACCUUGGGGAUGAUUGUGGCAUGGGCCCACUCCUUCCCAAACUUUUCCACGGGCUUCUUCAGGUUGCUGGUGGCUGCCUCGCGGAUGGCAUAUACAUGAUCCACAAGCCAGGCCAACAGAGGAUUGAGCAUCA
# B10: chr15:98684510:98684511:-_ENSMUSG00000048154_ENSMUST00000023741|mus_mus|FALSE|FALSE (ssRNA)
# RNA: GGGAGUUCUACAGUCCGACGAUCGGCCUUUUGCAGGUAGGGGGCUUUGUCAGCGGCUGGAACCUUUCUCCAGAGCUUCAUGAUUUGUUUACAUCGGCUAGACCAGUCUGGGUAAUCUUGCUUGAGAUUAGGAAAGUUAAUGUUCAACAGAGGAUUGAGCAUCA
# B11: 100424326_100425255_1919_3pUTR_ENSG00000136937_ENST00000375147|human|control|control (ssRNA)
# RNA: GGGAGUUCUACAGUCCGACGAUCUUUUGAAGACUUCAUGAAACUUUGCAAGAGCACUGAAGGAGUGGCUGAAUGAUUUGGCUGCCAAGUGUAGCAGAGUCUGUACAAAGACUUCUAUUUUCAAUGGGUUAAAACUGAAUCCUUCAACAGAGGAUUGAGCAUCA
# B12: chr4:107938938:107938939:-_ENSMUSG00000034636_ENSMUST00000043616|mus_mus|motif|central (ssRNA)
# RNA: GGGAGUUCUACAGUCCGACGAUCCCGGCUGAAGCACCGCUCAUAUGGAUCCUCGAGGGACAGAGUUAAUGAGUUUAGUACGGAGCACUGAAGAUUUUGCUGGAUCCACUUGUUACUGCCAAGGCCACUUAUGAUGUCUGUGAUCAACAGAGGAUUGAGCAUCA
# B13: chr7:75932113:75932114:+_ENSG00000106211_ENST00000248553|hu_hu|hu_hu_hu_mus_False|28_98 (ssRNA)
# RNA: GGGAGUUCUACAGUCCGACGAUCCUGCGACCACUCAUCCGGCAGCCGGGGCACCCCGAAAGCUUGAUCGAAGAGGCGGCUGUGUGCAGGGUACCAGUCCCGGAAUGCCCAGCUGGGCGGGCUCCGCAGCAGCGAGAAGGGCACCAACAGAGGAUUGAGCAUCA
# B14: chr14:62207481:62207482:+_ENSG00000100644_ENST00000337138|hu_hu|motif|central (ssRNA)
# RNA: GGGAGUUCUACAGUCCGACGAUCGGAACGUAACUGGAAGUCAUCAUCCAUUGGGAUAUAGGGAGCUAACAUCUCCAAGUCGGAAUCUGUGUCCUGAGUAGAAAAUGGGUUCUUUGCUUCUGUGUCUUCAGCAAAAAGUUUUUCCAACAGAGGAUUGAGCAUCA
# B15: 3094694_3110175_347_CDS_ENSG00000088256_ENST00000078429|human|control|control (ssRNA)
# RNA: GGGAGUUCUACAGUCCGACGAUCGAACGUGCUCUUCCCGCUCUCGCCCGUGCCGAGCAGCAGCAGCUUGAGCUCGCGCCGGGCGUCGCGCUUGUCCCGCCGCAGCUGCUUCUCGAUCUCGGCGUUGAUCCGCUUGGACUCCUUCAACAGAGGAUUGAGCAUCA
# B16: chr6:71460543:71460544:+_ENSMUSG00000052656_ENSMUST00000064637|mus_hu|motif|central (ssRNA)
# RNA: GGGAGUUCUACAGUCCGACGAUCCAACCAAAUAAAUUCUGUCAUCAACAUUAGCAUAAUGUGUAUUUCCCGUCACUGCACGGACAUUAAACUAAACUUCAAACCACAAAAACAUUGUGACUAACAUUAAAAAGGCAAGCUGUACAACAGAGGAUUGAGCAUCA
# B17: 3469518_3474534_773_CDS_ENSMUSG00000037486_ENSMUST00000111215|mouse|control|control (ssRNA)
# RNA: GGGAGUUCUACAGUCCGACGAUCUCUGCAUUGCUGCUGCUUCUUCUUCUGUUGUUGCUGCUUCAAGGCCUGUUUUAAUGCCUUUUUGCUGUGCUUCUGUGAUGGAGAAAUGACUUUACUUGCUGGAAUGGUGGGUGAUGGGCACAACAGAGGAUUGAGCAUCA
# B18: chr11:87793471:87793472:-_ENSMUSG00000020483_ENSMUST00000020775|mus_mus|mus_mus_mus_hu_False|48_108 (ssRNA)
# RNA: GGGAGUUCUACAGUCCGACGAUCUGGGGGCUGGGGAAAAAGAAUAAGCUGGAUCCCCCACCCCCCCACAUUGUCAACCCUACACGAGUUCUGAAUGGGCGACUCAUGAAAAUCAGCAGCUCAAACGGCAAUGACCACCCCACCCAACAGAGGAUUGAGCAUCA
# B19: chr4:81936313:81936314:-_ENSMUSG00000008575_ENSMUST00000064770|mus_mus|motif|central (ssRNA)
# RNA: GGGAGUUCUACAGUCCGACGAUCCCCACAAAAAGUACACAAAGAACAUUAUCCUCCAACCGGGCACAAUAAAACCUUCACGGACAUUCCGGCCCAGUCUGGGGCCUAUCCCAGAGGCCCGAACUCCAGAAAUUAAGUAAGUAACAACAGAGGAUUGAGCAUCA
# B20: 180847415_180847535_5442_CDS_ENSMUSG00000026494_ENSMUST00000161017|mouse|control|control (ssRNA)
# RNA: GGGAGUUCUACAGUCCGACGAUCCGACAGGCUUUCGGCCCUCUCCAACGACAAGCAUUCGUAGUGGCUGACUGUUGUCCUGCCAAGAGAGUUGCUUCUGCUGGCCAGCUGUUCCAGCUUGGCGCUGAAGAGCUUACUGCUGCUCAACAGAGGAUUGAGCAUCA
# B21: chr2:20454729:20454730:-_ENSG00000055917_ENST00000338086|hu_mus|motif|central (ssRNA)
# RNA: GGGAGUUCUACAGUCCGACGAUCAACAUAAUUGCCAUACUGAUCCUGUACCAACUGUUCUGUGUGUUGGUGAAGUUCUUCGGAGAUGGGUAAGGUCUGCUCUGCCGUGCAGUGCUCUAAGAUACGCUGAAUGACUCUGCAGCCCAACAGAGGAUUGAGCAUCA
# B22: chr11:47008823:47008824:+_ENSG00000149179_ENST00000278460|hu_hu|motif|central (ssRNA)
# RNA: GGGAGUUCUACAGUCCGACGAUCUCCCUGGCAUACACUGUUAAAAUAUUCAGUGAAGAACCUGGCAAUUCCAUAUUGGCGGAUAUCUUCCCUGUUUUCUAGCAGCUGGCACACUGCAUCCUCCAUGUAGGUGAGGACAUGUCGCAACAGAGGAUUGAGCAUCA
# Target: T1, UNK ZnF1-3
# Test: nsRBNS (natural sequence RNA bind-n-seq); RBNS binding buffer (assumed for nsRBNS): 25 mM Tris pH 7.5, 150 mM KCl, 3 mM MgCl2, 0.01% Triton X-100, 500 ug/ml BSA, 20 U/ml SUPERase-In, 4 C; UNK is unkempt and MSI1 is Musashi-1; names of the RNAs are library labels; protein concentration not given here; high values mean tight binding
row,Binder,binding signal [enrichment R]
1,B1,1.86
2,B2,1.46
3,B3,1.5
4,B4,0.646
5,B5,0.875
6,B6,0.472
7,B7,1.02
8,B8,1.26
9,B9,1.21
10,B10,0.788
11,B11,1.05
12,B12,1.23
13,B13,0.901
14,B14,1.15
15,B15,0.559
16,B16,1.01
17,B17,0.465
18,B18,1.49
19,B19,1.25
20,B20,0.463
21,B21,0.842
22,B22,0.688
